Assay results as given in patent US20260184758A1 (CUE BIOPHARMA, published 2026).

Columns and labels:
[1] = biological target: T1, biotinylated NKG2A/CD94 heterodimer (UniProt P26715, in part; Q13241, in part); experiment: BLI (Octet HTX), biotinylated receptor on streptavidin biosensor, bivalent TMP as analyte, kinetic analysis
T1 construct: Biotinylated heterodimer immobilized on streptavidin-coated biosensors; also called CD94/NKG2A receptor; NKG2A/CD94 complex
Source text: (§1) Streptavidin-coated biosensors were used to immobilize biotinylated NKG2A/CD94 heterodimers, or biotinylated NKG2C/CD94 heterodimers.

[2] = biological target: T2, biotinylated NKG2C/CD94 heterodimer (UniProt P26717, in part; Q13241, in part); experiment: as above
T2 construct: Biotinylated heterodimer immobilized on streptavidin-coated biosensors; also called CD94/NKG2C receptor
Source text: as §1

[3] = biological target: T1, biotinylated NKG2A/CD94 heterodimer; experiment: BLI (Octet HTX), biotinylated receptor on streptavidin biosensor, bivalent TMP as analyte, kinetic Kd (avidity)
Source text: as §1

[4] = biological target: T2, biotinylated NKG2C/CD94 heterodimer; experiment: as above
Source text: as §1

[5] = biological target: T1, biotinylated NKG2A/CD94 heterodimer; experiment: BLI (Octet HTX), biotinylated receptor on streptavidin biosensor, bivalent TMP as analyte, steady state Kd (avidity)
Source text: as §1

[6] = biological target: T2, biotinylated NKG2C/CD94 heterodimer; experiment: as above
Source text: as §1

B1: construct 4517 (single-chain TMP: NKG2 peptide VMAPRTLFL, β2M polypeptide, HLA-E heavy chain polypeptide, Ig Fc polypeptide, 2 copies of a variant IL-2) (peptide-MHC)
chain: VMAPRTLFLGCGGSGGGGSGGGGS[letters of about 100 residues omitted]GGGGSGGGGSGGGGSGSHSLKYFHTSVSRPGRGEPRFISVGYVDDTQFVRFDNDAASPRMVPRAPWMEQEGSEYWDRETRSARDTAQIFRVNLRTLRGCYNQSEAGSHTLQWMHGCELGPDRRFLRGYEQFAYDGKDYLTLNEDLRSWTAVDTAAQISEQKSNDASEAEHQRAYLEDTCVEWLHKYLEKGKETLLHLEPPKTHVTHHPISDHEATLRCWALGFYPAEITLTWQQDGEGHTQDTELVETRPCGDGTFQKWAAVVVPSGEEQRYTCHVQHEGLPEPVTLRWKAAAGG[letters of human IgG1 Fc with changes omitted]GGGGSGGGGSGGGGS[letters of about 150 residues omitted]GGGGSGGGGSGGGGSGGGGS[letters of about 150 residues omitted]
For B1, the koff [1] was 0.012 s⁻¹, the kon [1] was 1.2e+06 M⁻¹ s⁻¹ and the koff [2] was 0.014 s⁻¹. The kon [2] was 1.6e+06 M⁻¹ s⁻¹, the Kd [3] was 10 nM and the Kd [4] was 8.5 nM. For the same binder, the Kd [5] was 10 nM and the Kd [6] was 5.8 nM.
